# According to the supplement of paper PMC5919970:
# Where a name gives a salt, the structure may show the parent alone. Over roughly 2,000 compounds, “fractional viability relative to vehicle” has its median near 0.91; the lowest 2% begin near 0.045. The list shows a part of the results.
# System: TYKNU
# Assay: fractional viability relative to vehicle; TYKNU is a high-grade serous ovarian cancer line; higher = less growth inhibition
# Details: 72 h
# Summary of the method: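 Drug treatment lasted 72 h, with cells grown at 37 °C in 5% CO2 in RPMI 1640 supplemented with 10% FBS. Beforehand, TYKNU control cells or their lentiCRISPRv2 knockout derivatives had been seeded at 500 cells per well into drug-stamped 384-well plates carrying a ~2100-compound library at 2 or 10 μM, in duplicate. Viability came from Cell Titer Glo luminescence, with averaged duplicate treatment wells normalised to duplicate control wells in the same plate position.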
# [1] = 2uM, genotype: DNM1L knockout (sgDNM1L #1)
# [2] = 2uM, genotype: sgCTRLA1 (non-targeting control)
# [3] = 10uM, genotype: DNM1L knockout (sgDNM1L #1)
# [4] = 10uM, genotype: sgCTRLA1 (non-targeting control)
Compound,fractional viability [1],fractional viability [2],fractional viability [3],fractional viability [4]
COc1cc2ncnc(Nc3ccc(Cl)cc3F)c2cc1OC,1.43,1.19,1.1,1.17
N#Cc1ccc2[nH]c(O)c(-c3ccc(CN4CCOCC4)cn3)c2c1,0.808,1.12,0.479,0.838
Oc1ccc(Nc2nc(-c3ccc(Cl)cc3)cs2)cc1,0.857,1.03,0.558,0.712
c1ccc2c(Oc3nc(Nc4ccc(N5CCOCC5)cc4)c4ncn(C5CCCCC5)c4n3)cccc2c1 [Purmorphamine],0.802,1.16,0.725,0.986
C[C@]12C=CC(=O)C=C1CC[C@@H]1[C@@H]2C(=O)C[C@@]2(C)[C@H]1CC[C@]2(O)C(=O)CO [Prednisone],1.11,1.16,0.95,1.18
CCOC(=O)CCC(=O)O[C@H]1[C@H](O[C@@H]2[C@@H](C)[C@H](O[C@H]3C[C@@](C)(OC)[C@@H](O)[C@H](C)O3)[C@@H](C)C(=O)O[C@H](CC)[C@@](C)(O)[C@H](O)[C@@H](C)C(=O)[C@H](C)C[C@@]2(C)O)O[C@H](C)C[C@@H]1N(C)C [Erythromycin Ethylsuccinate],1.16,1.13,0.919,1.09
COc1cc(NC(=O)c2ccc(-c3ccc(Cl)cc3)o2)cc(OC)c1,1.06,1.09,1.09,1.04
CS(=O)(=O)Nc1ccc([N+](=O)[O-])cc1Oc1ccccc1 [Nimesulide],0.973,1.1,0.922,1.01
C=CC(=O)Nc1cccc(Nc2nc(Nc3ccc(NC4CN(CCF)C4)cc3OC)ncc2C(F)(F)F)c1,0.67,0.752,0.164,0.154
CC(C)CN(C[C@@H](O)[C@H](Cc1ccccc1)NC(=O)O[C@H]1CCOC1)S(=O)(=O)c1ccc(N)cc1 [Amprenavir],0.815,1.06,0.789,0.981
CCC1=C[C@@H]2CN(C1)Cc1c([nH]c3ccccc13)[C@@](C(=O)OC)(c1cc3c(cc1OC)N(C)[C@H]1[C@@](O)(C(=O)OC)[C@H](OC(C)=O)[C@]4(CC)C=CCN5CC[C@]31[C@@H]54)C2 [Vinorelbine Tartrate],0.136,0.134,0.132,0.119
CNC(=C[N+](=O)[O-])NCCSCc1csc(CN(C)C)n1 [Nizatidine],0.911,0.967,0.878,0.991
CCNC(=O)c1noc(-c2cc(Cl)c(O)cc2O)c1-c1ccc(OC)cc1,0.214,0.177,0.296,0.134
CCn1cc(C(=O)O)c(=O)c2cc(F)c(N3CCN(C)CC3)cc21 [Pefloxacin Mesylate Dihydrate],1.13,1.17,1.01,1
CCn1cc(C(=O)O)c(=O)c2cc(F)c(N3CCN(C)CC3)cc21 [Pefloxacin Mesylate],1.08,0.968,1.01,0.888
CCOC(=O)c1ccc(N2NC(=O)C(=Cc3ccc([N+](=O)[O-])o3)C2=O)cc1,0.944,1.26,0.872,1.02
C[C@@H]1CN(c2c(F)c(N)c3c(=O)c(C(=O)O)cn(C4CC4)c3c2F)C[C@H](C)N1 [Sparfloxacin],0.91,1.19,0.979,1.14
Cc1cc(NC(=O)c2cccc(NC(=O)/C=C/CN(C)C)c2)ccc1Nc1nccc(-c2cccnc2)n1,0.771,1.03,0.22,0.265
Cc1cccc(Nc2cc(Cl)nc(SCC(=O)O)n2)c1C,0.786,0.929,0.767,0.719
O=C(N/N=C/c1ccc([N+](=O)[O-])o1)c1ccc(O)cc1 [Nifuroxazide],0.378,1.1,0.0463,0.0163
Cc1cn([C@@H]2C[C@@H](O)[C@H](CO)O2)c(=O)[nH]c1=O [Telbivudine],1.07,1.12,0.888,1
CCc1cc(C(N)=S)ccn1 [Ethionamide],1.08,1.17,0.926,1.03
Cn1cc(C2=C(c3ccc(Cl)cc3Cl)C(=O)NC2=O)c2ccccc21,1.22,1.05,0.706,0.931
OCc1ccc(O[C@@H]2O[C@H](CO)[C@@H](O)[C@H](O)[C@H]2O)cc1 [Gastrodin],0.926,1.16,0.853,1.06
O=C(NC(NC(=S)Nc1ccc(F)c([N+](=O)[O-])c1)C(Cl)(Cl)Cl)C(c1ccccc1)c1ccccc1 (stereo not given),1.03,1.04,0.136,0.0877
COC(=O)c1ccc2c(c1)[nH]c1ncnc(NCCCN3CCCCC3)c12,0.884,1.05,0.929,0.811
C[C@H]1[C@H](NC(=O)/C(=N\OC(C)(C)C(=O)O)c2csc(N)n2)C(=O)N1S(=O)(=O)O [Aztreonam],0.616,0.642,0.219,0.278
OC[C@H]1O[C@@H](OCCc2ccc(O)cc2)[C@H](O)[C@@H](O)[C@@H]1O [Salidroside],0.968,1.14,0.842,1.07

Compound,fractional viability [1],fractional viability [2],fractional viability [3],fractional viability [4]
CCc1c2c(nc3ccc(OC(=O)N4CCC(N5CCCCC5)CC4)cc13)-c1cc3c(c(=O)n1C2)COC(=O)[C@]3(O)CC [Irinotecan HCl Trihydrate],0.69,0.913,0.223,0.376
CCc1c2c(nc3ccc(OC(=O)N4CCC(N5CCCCC5)CC4)cc13)-c1cc3c(c(=O)n1C2)COC(=O)[C@]3(O)CC [Irinotecan],0.562,0.776,0.291,0.314
C=C1/C(=C\C=C2/CCC[C@]3(C)[C@@H]([C@H](C)CCCC(C)(C)O)CC[C@@H]23)C[C@@H](O)C[C@@H]1O [Calcitriol],0.841,1.04,0.66,0.934
CCOC(=O)NCCCC(=O)NCCc1ccccc1,0.756,0.967,0.873,0.778
CCC[C@H](NC(=O)/C(C#N)=C/c1cccc(Br)n1)c1ccccc1 [Degrasyn (WP1130)],0.0738,0.0639,0.0286,0.026
CC(C)(O)CC[C@@H](O)[C@](C)(O)[C@H]1CC[C@@]2(O)C3=CC(=O)[C@@H]4C[C@@H](O)[C@@H](O)C[C@]4(C)[C@H]3CC[C@]12C [20-Hydroxyecdysone],1.04,1.1,0.84,1.02
CNC(=O)c1nn(C)c2c1C(C)(C)Cc1cnc(Nc3ccc(N4CCN(C)CC4)cc3)nc1-2,0.409,0.387,0.307,0.229
CN1CCN(c2cccc(Nc3nc4c(-c5ccc(S(C)(=O)=O)cc5)cccn4n3)c2)CC1,0.89,0.911,0.549,0.649
COc1cc2nc(N3CCN(C(=O)C4CCCO4)CC3)nc(N)c2cc1OC (stereo not given) [Terazosin HCl],1.17,1.16,1.07,0.97
CN[C@@H](C)C(=O)N[C@H](C(=O)N1CCC[C@H]1C(=O)Nc1snnc1-c1ccccc1)C1CCCCC1,0.801,1.08,0.571,0.853
CNS(=O)(=O)Nc1nccc(Cc2c(C)c3ccc(Oc4ncccn4)cc3oc2=O)c1F,0.326,0.304,0.239,0.199
OC[C@@H](O)[C@@H](O)[C@H](O)[C@@H](O)CO [Sorbitol],0.882,1.18,0.868,1.04
CC(C)(C)c1cc(C(=O)C(C#N)=NNc2cccc(Cl)c2)no1,0.783,0.936,0.57,0.583
CC(=O)OCC(=O)[C@@]1(O)CC[C@H]2[C@@H]3CCC4=CC(=O)CC[C@]4(C)[C@H]3C(=O)C[C@@]21C [Cortisone acetate],0.961,1.14,0.985,1.02
FC(F)(F)c1ccc(/C=C/c2nc(COc3ccc(CCCCn4ccnn4)cc3)co2)cc1 [Mubritinib (TAK 165)],0.716,0.534,0.545,0.517
CN(C)CCCOc1nn(Cc2ccccc2)c2ccccc12 [Benzydamine HCl],0.913,1.16,0.72,0.996
O=C1c2c(O)cc(O)cc2OC(c2ccc(O)c(O)c2)C1O (stereo not given) [Taxifolin (Dihydroquercetin)],1.04,1.15,0.951,1.06
CC1=C(C(=O)OC2CCCCC2)C(c2ccc([N+](=O)[O-])cc2)C2=C(CC(C)(C)CC2=O)N1 (stereo not given),0.701,0.97,0.893,0.862
C[C@@H]1C(=O)O[C@H]2C[C@@]34[C@H]5C[C@@H](C(C)(C)C)[C@]36[C@@H](OC(=O)[C@@H]6O)O[C@@]4(C(=O)O5)[C@]21O [Ginkgolide A],1.02,1.13,1.01,1.16
O=C(O)C(Cc1ccccc1[N+](=O)[O-])=NNc1nc(-c2ccc(Cl)c(Cl)c2)cs1 (mixture of isomers),0.727,0.775,0.717,0.573
CC(c1cc2ccccc2s1)N(O)C(N)=O (stereo not given) [Zileuton],1.08,1.13,1.05,1.1
NC(=O)c1ncn([C@@H]2O[C@H](CO)[C@@H](O)[C@H]2O)c1N [Acadesine],0.96,1.03,0.952,1.04
CN(C)CCc1c[nH]c2ccc(C[C@H]3COC(=O)N3)cc12 [Zolmitriptan],0.993,0.968,0.833,1.07
CN(C)CCC=C1c2ccccc2C=Cc2ccccc21 [Cyclobenzaprine HCl],0.777,1.1,0.544,0.961
O=C1c2cccc(O)c2C(=O)c2c(O)cc(CO)cc21 [Aloe-emodin],1.09,1.12,0.862,1.14
NS(=O)(=O)c1cc2c(cc1Cl)NCNS2(=O)=O [Hydrochlorothiazide],1.01,1.19,0.965,1.12
O=C1C(=O)N(Cc2ccc(Cl)c(Cl)c2)c2ccccc21 [Apoptosis Activator 2],0.431,0.543,0.157,0.108
